Assay results taken from PMC4336329 (PLoS ONE, 2015).
Hit rate of the full screen: of about 310,000 compounds, about 14,000 (4.5%) showed an effect of 50% or more. The effect is printed as a negative number. The list shows a part of the results.

target: human ether-à-go-go-related gene (hERG) potassium channel (human, UniProt Q12809); test: primary screen, population patch clamp on CHO cells stably expressing hERG
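Further: peak tail current of the secondary pulse compared with the same well before compound.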

Chain of human ether-à-go-go-related gene (hERG) potassium channel (Q12809 whole entry, looked up): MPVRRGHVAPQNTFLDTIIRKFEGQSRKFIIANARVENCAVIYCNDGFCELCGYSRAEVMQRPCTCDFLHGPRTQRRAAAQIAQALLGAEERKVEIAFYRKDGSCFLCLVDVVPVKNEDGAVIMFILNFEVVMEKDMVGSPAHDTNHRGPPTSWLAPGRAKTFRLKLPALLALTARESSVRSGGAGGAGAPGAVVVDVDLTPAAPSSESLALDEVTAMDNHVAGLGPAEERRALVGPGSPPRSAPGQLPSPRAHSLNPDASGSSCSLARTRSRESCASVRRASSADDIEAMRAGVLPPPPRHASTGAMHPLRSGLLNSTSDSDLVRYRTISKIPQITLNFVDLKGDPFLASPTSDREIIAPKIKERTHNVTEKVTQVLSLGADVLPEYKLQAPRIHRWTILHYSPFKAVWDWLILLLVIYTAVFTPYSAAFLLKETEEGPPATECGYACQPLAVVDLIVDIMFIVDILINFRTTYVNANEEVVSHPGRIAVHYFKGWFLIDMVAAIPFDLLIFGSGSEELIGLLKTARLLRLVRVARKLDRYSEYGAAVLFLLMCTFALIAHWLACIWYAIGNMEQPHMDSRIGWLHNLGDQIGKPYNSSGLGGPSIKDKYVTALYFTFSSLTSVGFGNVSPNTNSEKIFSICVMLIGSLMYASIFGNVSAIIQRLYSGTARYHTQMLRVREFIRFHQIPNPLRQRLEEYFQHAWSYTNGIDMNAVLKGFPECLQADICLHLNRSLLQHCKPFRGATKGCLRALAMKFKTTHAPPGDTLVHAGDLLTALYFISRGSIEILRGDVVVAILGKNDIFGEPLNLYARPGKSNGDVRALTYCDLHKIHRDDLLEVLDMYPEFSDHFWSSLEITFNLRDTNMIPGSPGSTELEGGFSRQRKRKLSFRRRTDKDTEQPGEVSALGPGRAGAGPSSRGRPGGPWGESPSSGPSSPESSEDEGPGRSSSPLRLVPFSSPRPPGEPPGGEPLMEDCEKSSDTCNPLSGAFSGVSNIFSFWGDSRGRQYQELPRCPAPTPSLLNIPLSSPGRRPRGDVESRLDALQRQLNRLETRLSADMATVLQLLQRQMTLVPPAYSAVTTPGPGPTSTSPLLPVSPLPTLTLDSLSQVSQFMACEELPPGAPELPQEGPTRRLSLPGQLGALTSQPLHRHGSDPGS

Row | Structure (SMILES) | hERG current change (%, negative = inhibition) at 10uM
1 | Cc1c(C(=O)N2CCN(c3ccccc3)CC2)oc2c(Cl)cccc12 | 4.82%
2 | COc1cccc(S(=O)(=O)N2CCN(Cc3ccc4c(c3)OCO4)CC2)c1 | -24.4%
3 | COc1ccc2c(c1)C1=NN(/C(C)=C/C(C)=O)C(c3cccc(F)c3)C1CC2 (stereo not drawn) | -5.18%
4 | Cc1c(Cc2ccccc2)c(=O)oc2cc(OC(=O)c3ccccc3)ccc12 | 15.8%
5 | CC(NC(=O)Cn1c(NCCO)nc2ccccc21)C1CC2CCC1C2 (stereo not drawn) | 9.08%
6 | COc1ccc(C(=O)NCc2nnc(SCC(=O)Nc3cc(Cl)ccc3OC)o2)cc1 | -42%
7 | COc1cc(C(=O)Nc2ccc(NC(=O)C3CC3)nc2)cc(OC)c1OC | -3.02%
8 | CN(C)C=NC(=O)/C(C#N)=C1\CCc2ccccc2N1 | -14.4%
9 | Cl.N[C@@H](Cc1ccccc1)c1nnc(SCc2ccccc2Cl)o1 | -17.4%
10 | CCNc1nc(NCC)nc(Oc2ccc(C(=O)OC)cc2)n1 | -5.78%
11 | CC1CN(Cc2cc(=O)oc3cc(O)ccc23)CC(C)O1 (stereo not drawn) | -23.3%
12 | Cc1cc(C)cc(CSc2nnc(C)c(=O)[nH]2)c1 | -7.36%
13 | Cc1cc(N2C(=O)C3C4CC(C(Br)C4Br)C3C2=O)no1 (stereo not drawn) | 32.7%
14 | O=C(Nc1ccc2c(c1)OCO2)c1c(F)c(F)c(F)c(F)c1F | -0.0939%
15 | O=C(NCCN1CCN(C(=O)Nc2ccccc2)CC1)Nc1ccccc1 | -0.332%
16 | COc1ccc(-c2cc(C)no2)cc1S(=O)(=O)NCc1cccc(C)c1 | -41.5%
17 | COCCc1ccc(OCC(O)CNC(C)C)cc1.O=C(O)[C@H](O)[C@@H](O)C(=O)O (stereo not drawn) | -1.76%
18 | CC(Oc1cc2oc(=O)c3c(c2cc1Cl)CCC3)C(=O)NCCCN1CCCC1=O (stereo not drawn) | -49.7%
19 | CC(=O)N1c2ccc(S(=O)(=O)N3CCC(C(=O)N4CCN(c5cc(Cl)ccc5C)CC4)CC3)cc2CC1C (stereo not drawn) | -7.33%

Row | Structure (SMILES) | hERG current change (%, negative = inhibition) at 10uM
20 | Cc1ccc2cc(CCNC(=O)C3CCCC3)c(=O)[nH]c2c1 | 6.03%
21 | CC(O)CCC(=O)NNC1=CC(=O)CC(C)(C)C1 (stereo not drawn) | 5.62%
22 | COC1(c2ccccc2)NC(=S)NN=C1c1ccccc1 (stereo not drawn) | 13.1%
23 | Cc1ccccc1NC(=O)COc1ccc(Br)cc1C | 22.4%
24 | CC12CCC(CC1=O)C2(C)C (stereo not drawn) | 8.29%
25 | O=C(CS(=O)(=O)c1ccc(F)cc1)Nc1nccs1 | 9.06%
26 | O=C(CSc1n[nH]c(=O)[nH]c1=O)NC1CC1 | 16.5%
27 | COc1ccc(C2/C(=C(/O)c3ccc(S(=O)(=O)N4CCOCC4)cc3)C(=O)C(=O)N2CCN2CCOCC2)cc1 (stereo not drawn) | 6.11%
28 | CCCNC(=O)c1cc(Cl)c(NC(=O)C2=C(C)OCCS2)cc1OC | -14.5%
29 | COc1cc(C(O)c2nc3ccccc3s2)cc(OC)c1OC (stereo not drawn) | 8.99%
30 | Cc1ccc(CSc2nc3c(cc2C#N)CCC3)cc1 | 0.0972%
31 | O=C(CSc1nnc(-c2ccco2)o1)NC(=O)Cc1ccccc1 | -5.31%
32 | COCCCNC(=S)N1CCN(c2nc(C)nc3sc4c(c23)CCCC4)CC1 | -34.4%
33 | CCOC(=O)CCCCC(=O)c1[nH]c(=O)[nH]c1Cn1ccnc1 | 8%
34 | CS(=O)(=O)N(CC(=O)NCc1ccco1)c1cc(C(F)(F)F)ccc1Cl | -9.85%
35 | COc1ccc(Cl)cc1S(=O)(=O)N1CCCc2ccccc21 | -9.71%
36 | Cc1cc2ccccc2n1CCNC(=O)c1cccs1 | -0.757%
37 | COc1ccc(N2CCN(Cc3nc(-c4ccc(Cl)cc4Cl)no3)CC2)cc1 | -1.91%
38 | O=C(NCc1ccco1)C(c1ccccc1)N(Cc1ccccc1)C(=O)Cn1nnc2ccccc21 (stereo not drawn) | 10.6%

Row | Structure (SMILES) | hERG current change (%, negative = inhibition) at 10uM
39 | CN1CCN(C(CNS(=O)(=O)c2ccc([N+](=O)[O-])cc2)c2ccc(F)cc2)CC1 (stereo not drawn) | -67.6%
40 | COc1ccc(C(=O)NNC(=O)C(=O)Nc2cccc3ccccc23)cc1 | 13.2%
41 | Cc1ccc(C(=O)/C=C/c2ccccc2)o1 | 2.45%
42 | O=C(O)c1[nH]c2ccccc2c1C(c1c(F)cccc1Cl)c1c(C(=O)O)[nH]c2ccccc12 | 18.2%
43 | O=C(NCCC1CCCCN1S(=O)(=O)c1ccccc1)C(=O)NCc1ccncc1 (stereo not drawn) | -2.1%
44 | CCCCCn1c(SCCN2CCOCC2)nc2c1c(=O)[nH]c(=O)n2C | -66.5%
45 | O=C(COC(=O)c1nc(Cl)c(Cl)c(Cl)c1Cl)NCc1ccccc1 | 0.12%
46 | CCOCC(=O)Nc1ccc(OCc2ccccc2)cc1 | 0.919%
47 | COc1ccc2[nH]c(C)c(CCNC(=S)Nc3ccc(F)cc3)c2c1 | -12.1%
48 | COc1ccc(C)cc1S(=O)(=O)N(CC(=O)O)c1ccc(C)cc1 | 5.39%
49 | CCOC(=O)c1cccc(C2=CC(=O)C[C@H](c3ccc(OC)cc3)C2)c1 | -8.47%
50 | CC(C)Oc1cccc(C(=O)Nc2ccc(N3CCN(S(C)(=O)=O)CC3)cc2)c1 | -0.708%
51 | CCOC(=O)c1c(/N=C/N(C)C)sc(/C=N/Nc2ccccc2)c1-c1ccc(Cl)cc1 | 23.8%
52 | COc1ccc(/C=C2/NC(=O)N(Cc3ccccc3F)C2=O)cc1OC | 3.22%
53 | O=C(NCCN1CCOCC1)c1cc(-c2ccc(F)cc2)on1 | -13.9%
54 | Cc1ccc(-c2ccc(/C=N/NC(=S)Nc3ccccc3)o2)cc1[N+](=O)[O-] | 12.7%
55 | Cc1cc(C)n(-c2nc3ccccc3nc2N2CCC(C)CC2)n1 | -16.1%
56 | Cc1cc(C)n(-c2ccc(OCC(=O)O)nn2)n1 | 2%
57 | COC(=O)c1ccccc1NC(=O)CN1CCC(C)CC1 | 9.3%
